{
  "source": "paper PMC12136788",
  "binders": {"B1": {"name": "chr13:91842754:91842755:+_ENSMUSG00000003992_ENSMUST00000004094|mus_mus|FALSE|FALSE (ssRNA)", "RNA": "GGGAGUUCUACAGUCCGACGAUCCCCAAAAUAUGUGAGUACUGCUGAUUUCAUUAUUAUGGGCUGAAGUAUGCAGAAAGCUAACCUCUGGCAAGCAGCAUAUACAUCAAGAGGACAUGAAUGGGCCAACAGCCGUAGAAUGCACAACAGAGGAUUGAGCAUCA"}, "B2": {"name": "chrX:140365796:140365797:-_ENSMUSG00000031285_ENSMUST00000033642|mus_mus|mus_mus_mus_hu_False|38_98 (ssRNA)", "RNA": "GGGAGUUCUACAGUCCGACGAUCCUUCUCAUUACUCAAUGCCUGCAAGGUUCUGGUUCGGUAGAAGCUACAGUGGGCGCUGUGAGUGGGGCUAGGCAGUCCAUUCAUCCGGGAGCCUCGCAUGUUCCUGGAUGUCUUAUCUCUCAACAGAGGAUUGAGCAUCA"}, "B3": {"name": "chr7:149068622:149068623:-_ENSMUSG00000025139_ENSMUST00000001950|mus_hu|mus_mus_mus_hu_False|18_18 (ssRNA)", "RNA": "GGGAGUUCUACAGUCCGACGAUCGUGAGGCCUCUGAGUGUGGCUUGUGGUCUGUCCUGGGUUAGAGUUGUUAAUAUCACGGAACAUACCAUCUAGAACGUUCCAGUCCCGCCUGACCAUCCACCCUCCAAUGGAGAAGAAAUCCAACAGAGGAUUGAGCAUCA"}, "B4": {"name": "chr4:140556289:140556290:+_ENSMUSG00000036622_ENSMUST00000037055|mus_mus|mus_mus_mus_hu_False|18_18 (ssRNA)", "RNA": "GGGAGUUCUACAGUCCGACGAUCGAUGGAGCUCACCAGGCCCCCUUUUGCCGUGCAGAACCCUGUGCGGGUCACCACUGCCAGGACGUGCGGUCCCACAUAGGCCCGGGCCUGCAAAAUGAGGGUGCCGCAGAAGAGUGUGUGCAACAGAGGAUUGAGCAUCA"}, "B5": {"name": "chr4:116276896:116276897:-_ENSMUSG00000028693_ENSMUST00000030457|mus_hu|FALSE|FALSE (ssRNA)", "RNA": "GGGAGUUCUACAGUCCGACGAUCUUUGCUGAACUGUGCCACUGCCUCAUCAUACUGAGAGUUGUACCCAUAAGCCAAGCCCAGCUGGUAGUGGGUCUCUGCAAGGAGACGGUCGUGGGCUUCCAGGUACUGUUCCUGCAGGUUCAACAGAGGAUUGAGCAUCA"}, "B6": {"name": "chr18:34933064:34933065:+_ENSMUSG00000034300_ENSMUST00000097622|mus_mus|FALSE|FALSE (ssRNA)", "RNA": "GGGAGUUCUACAGUCCGACGAUCCAGCCACACGCACCACACACGCAGCACAGAUGCAGGCGUCUACACAGCAGCAGCCACAAGCCCCGGAGGUGUGCUCCACUCUGGGUAAGCCCACUGUGUGAGAACCCAAAUGAUGAAACUCAACAGAGGAUUGAGCAUCA"}, "B7": {"name": "chr9:26905460:26905461:-_ENSG00000137055_ENST00000397292|hu_hu|motif|central (ssRNA)", "RNA": "GGGAGUUCUACAGUCCGACGAUCUAUUCUCUUUUUUUAAUUAUCUGUUAUCAGUCAUGUCAAAUGUGAGGAAAAAAACACGGAUCAAUUAAAAAUAUCCGUCCCUCUUCCCCACUGCUACAGCAAAUUUAGGAUAAAUCUACACAACAGAGGAUUGAGCAUCA"}, "B8": {"name": "128503968_128505323_866_CDS_ENSMUSG00000014355_ENSMUST00000014499|mouse|control|control (ssRNA)", "RNA": "GGGAGUUCUACAGUCCGACGAUCAGUUAUCUCAUCCAGUGGGUGCAGCAUGCUGAACAUAGUAGGCAAAGGUUCUCUAGGUAGACUUGGAGGUACCUCAUGUGAAGAACUGCAUCGUUCAAACAGCAAGCCAUAUUUAGUGGCCAACAGAGGAUUGAGCAUCA"}, "B9": {"name": "87781024_87781144_2837_CDS_ENSMUSG00000004891_ENSMUST00000090973|mouse|control|control (ssRNA)", "RNA": "GGGAGUUCUACAGUCCGACGAUCUAUAAAGUUCUCCCCAUUUCUAUCUUCAAGAGAUCCCAGGAUCUCAUGAGUCUUGUCUUCUAGCAGGCUCUUAAUCAUGUGGUCAUCUUCUUCCAGAUACCUUGGUGACUGCACAUUCUCCAACAGAGGAUUGAGCAUCA"}, "B10": {"name": "chr2:73747280:73747281:-_ENSMUSG00000018770_ENSMUST00000018914|mus_hu|FALSE|FALSE (ssRNA)", "RNA": "GGGAGUUCUACAGUCCGACGAUCCUUCAGCGAAGGGUUUCUGGCAUAACCAAUGAUAAGGCUGCCAAAGACUGUUCCAAUACCAGCACCAGAACCAGCCACUCCUACUGUUGCAGCACCUGCACCAAUAAAUUUGGCAGCAGUCAACAGAGGAUUGAGCAUCA"}, "B11": {"name": "chr7:30977587:30977588:-_ENSMUSG00000001794_ENSMUST00000108196|mus_mus|FALSE|FALSE (ssRNA)", "RNA": "GGGAGUUCUACAGUCCGACGAUCAGCUGGACAAAAAGUUUCCUGAACUGACGGACUUCUUCACUCUCGUUGGCCUCAAUAUUGGAGUAAUGACUACGUGGAGGCGGAGGCUCCGGGUUGUACUGCGCAGCAGCCUCGCUCAUCCAACAGAGGAUUGAGCAUCA"}, "B12": {"name": "chr12:21621489:21621490:+_ENSG00000121350_ENST00000240651|hu_hu|FALSE|FALSE (ssRNA)", "RNA": "GGGAGUUCUACAGUCCGACGAUCGACUUUGAUGUAUUCUCGUCCUUUGGUACAUCUCAGCAUUAAUUCAUGAUCUGAACCUAAGCCCUGUGCAUUGUAUUUUCCCAGCAGUACAACCUUAUAGUUAAAAAAUUUUGUCACAUGCAACAGAGGAUUGAGCAUCA"}, "B13": {"name": "chr20:52831857:52831858:+_ENSG00000101132_ENST00000441080|hu_hu|motif|central (ssRNA)", "RNA": "GGGAGUUCUACAGUCCGACGAUCAAGCAUGAUGUCAUCACAAGCAUCUUCUAGGUUUUGGAGUUGUUUCUUUUUUACUUCGGUUUCUUCCUUCAGCUCUGUGAUUCUACUUGUAUUCCGUGCAAAUUUGUUUAUCUUUUGUUGCAACAGAGGAUUGAGCAUCA"}, "B14": {"name": "chr15:59387643:59387644:+_ENSG00000157450_ENST00000557998|hu_mus|FALSE|FALSE (ssRNA)", "RNA": "GGGAGUUCUACAGUCCGACGAUCAAGGGCGGUACUUAACUCAGAAUUCCAUAUUGUAAAUAUACAGCAGCCAUUUUGUCCUAAUUUAAUUAAGGAAUGUCUUAAUACACAAUAUCAUUUCCUAGAAAAUCUUUAUACAUUAAACAACAGAGGAUUGAGCAUCA"}},
  "note": "The other results are listed elsewhere or left out.",
  "data": [
    {"target": "T1, UNK ZnF1-3 (human, UniProt Q9C0B0 31-174)", "T1 sequence": "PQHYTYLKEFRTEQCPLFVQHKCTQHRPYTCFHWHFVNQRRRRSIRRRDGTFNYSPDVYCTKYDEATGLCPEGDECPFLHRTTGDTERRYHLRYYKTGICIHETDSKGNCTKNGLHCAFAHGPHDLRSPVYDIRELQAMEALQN", "experiment": "nsRBNS (natural sequence RNA bind-n-seq); RBNS binding buffer (assumed for nsRBNS): 25 mM Tris pH 7.5, 150 mM KCl, 3 mM MgCl2, 0.01% Triton X-100, 500 ug/ml BSA, 20 U/ml SUPERase-In, 4 C; UNK is unkempt and MSI1 is Musashi-1; names of the RNAs are library labels; protein concentration not given here; high values mean tight binding", "units": {"binding signal": "enrichment R"}, "values": [
      {"binder": "B1", "binding signal": 1.35},
      {"binder": "B2", "binding signal": 0.692},
      {"binder": "B3", "binding signal": 0.97},
      {"binder": "B4", "binding signal": 1.43},
      {"binder": "B5", "binding signal": 0.797},
      {"binder": "B6", "binding signal": 1.17},
      {"binder": "B7", "binding signal": 0.626},
      {"binder": "B8", "binding signal": 1.23},
      {"binder": "B9", "binding signal": 0.517},
      {"binder": "B10", "binding signal": 0.991},
      {"binder": "B11", "binding signal": 1.48},
      {"binder": "B12", "binding signal": 1.35},
      {"binder": "B13", "binding signal": 0.367},
      {"binder": "B14", "binding signal": 0.707}
    ]}
  ]
}
